Experimental data published in PubChem BioAssay AID485344 (National Center for Advancing Translational Sciences (NCATS), 2010).
About 6,900 (2%) of roughly 340,000 compounds were called active. No stated cut-off is given here; in the data, active means inhibition above about 30%; inactive means below that, where a call was filed. The list shows a part of the results, in another mix than the full data. The source gives no active or inactive call for entries shown without one.

These compounds were tested against D(2) dopamine receptor (Homo sapiens) (UniProt P14416) (assay: HTS Assay for Allosteric Antagonists of the Human D2 Dopamine Receptor: Primary Screen for Antagonists). Conditions: HEK293 TREx D2 cells, calcium flux, dopamine EC80; at 10 µM; stronger effect = higher value.
How it was run: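 Antagonism is scored as inhibition of an EC80 dopamine-evoked calcium signal in a force-coupled, tetracycline-inducible HEK293 T-REx D2 line, with compound present 180 s before agonist.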
Further: 0% is about no effect.

Sequence of UniProt P14416 (P14416 whole entry, looked up): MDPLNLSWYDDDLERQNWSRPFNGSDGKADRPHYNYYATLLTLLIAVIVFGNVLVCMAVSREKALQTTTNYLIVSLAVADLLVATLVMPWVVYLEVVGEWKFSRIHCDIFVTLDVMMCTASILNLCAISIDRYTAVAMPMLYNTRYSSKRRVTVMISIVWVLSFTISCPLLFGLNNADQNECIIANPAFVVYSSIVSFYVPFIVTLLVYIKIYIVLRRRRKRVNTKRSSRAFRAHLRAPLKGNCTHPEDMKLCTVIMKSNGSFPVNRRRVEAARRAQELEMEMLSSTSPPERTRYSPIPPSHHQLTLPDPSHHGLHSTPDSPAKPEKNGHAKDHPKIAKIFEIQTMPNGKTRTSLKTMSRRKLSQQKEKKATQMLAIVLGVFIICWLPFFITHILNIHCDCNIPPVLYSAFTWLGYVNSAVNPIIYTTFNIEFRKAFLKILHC

Question: How did the inhibition turn out when `CCCC(CCC)C(=O)Nc1cccc(-c2nc3cccnc3s2)c1C` was run?
Answer: 11.2%

Question: `CCOC(=O)c1scc(-c2ccccc2)c1S(=O)(=O)Nc1ccc(N(C)C)cc1` was tested. Which inhibition did it give?
Answer: -23.8%

Question: How did the inhibition turn out when `CC(C)CN(CCCNC(=O)c1cc(-c2ccc(Br)s2)nc2ccccc12)CC(C)C` was run?
Answer: -2.7%

Question: How did the inhibition turn out when `CC(=O)c1ccc(NC(=O)C[n+]2cccc(C)c2)cc1` was run?
Answer: active: 36.6%

Question: For `O=C(Nc1nonc1-c1ccc(Cl)cc1)c1ccccc1F`, which inhibition is on record?
Answer: -16.4%

Question: `COc1ccc(CCNC(=O)C2(c3cccs3)CCOCC2)cc1` was tested. Which inhibition did it give?
Answer: -14.6%

Question: For `COc1ccc(N2CC(NC(=O)/C=C\c3ccc4c(c3)OCO4)CC2=O)cc1` (configuration not stated), which inhibition is on record?
Answer: -7.64%

Question: With `COc1ccc(NC(=O)C2CCN(S(=O)(=O)c3ccc4[nH]c(=O)ccc4c3)CC2)cc1Cl` as the compound, how does the inhibition read?
Answer: -1.78%

Question: Which inhibition does the source give for `COc1cc(OC)c(NC(=O)C(c2ccccc2)N2Cc3ccccc3C2=O)cc1Cl` (configuration not stated) here?
Answer: 13.5%

Question: `CCN(C/C=C/c1ccccc1OC)Cc1ccccc1` was tested. Which inhibition did it give?
Answer: active: 80%

Question: For `CCOc1ccc(N2CC(c3nc4ccccc4n3CCCOc3ccccc3OC)CC2=O)cc1` (configuration not stated), which inhibition is on record?
Answer: 6.01%

Question: How did the inhibition turn out when `CCc1nnc(SCc2cccc(F)c2)c2cc3sc(C)cc3n12` was run?
Answer: 6.98%

Question: With `CCS(=O)(=O)N1CC(=O)N(c2ccc(Cl)cc2C)C(C)(C(=O)NC2CCCCCC2)C1` (configuration not stated) as the compound, how does the inhibition read?
Answer: -12.9%

Question: For `COc1ccc(Br)cc1Cn1nnc(C(=O)Nc2ccc(C)cc2C)c1N`, which inhibition is on record?
Answer: 14.6%

Question: With `CCCCOc1ccc(C(=O)N2CC(=O)Nc3ccc(Br)cc3C2c2ccc(F)cc2)cc1` (configuration not stated) as the compound, how does the inhibition read?
Answer: 4.03%

Question: With `Cc1cc(C)nc(NS(=O)(=O)c2ccc(NC(=O)c3ccccc3O)cc2)n1` as the compound, how does the inhibition read?
Answer: 4.24%

Question: `Cc1cc(C)cc(-n2c(SCC(=O)N3CCCC3)nc3c([nH]c4ccccc43)c2=O)c1` was tested. Which inhibition did it give?
Answer: 4.28%

Question: With `Cn1c(=O)n(-c2ccc3c(c2)OCO3)c2nc(-c3ccc(Cl)cc3)nc(C(N)=O)c21` as the compound, how does the inhibition read?
Answer: 3.77%

Question: For `Cc1ccc(NC(=S)N(CCCN2CCCC(C)C2)Cc2ccco2)cc1C` (configuration not stated), which inhibition is on record?
Answer: active: 45.7%

Question: Which inhibition does the source give for `Cc1ccccc1NC(=O)CSc1nc(-c2ccc(F)cc2)nc2c1Cc1ccccc1O2` here?
Answer: -9.84%

Question: With `OC(COc1ccc2c(c1)OCO2)CN1CCc2ccccc2C1` (configuration not stated) as the compound, how does the inhibition read?
Answer: active: 41.8%

Question: For `Cc1nc2ccccc2n1CCc1nc2c3ccccc3nc(SCC(=O)Nc3cccc(C(F)(F)F)c3)n2n1`, which inhibition is on record?
Answer: -20.7%

Question: How did the inhibition turn out when `CCCCOc1ccc(C(=O)Nc2ccc(S(=O)(=O)Nc3nc(C)cc(C)n3)cc2)cc1` was run?
Answer: 7.01%

Question: `Cc1nnc(NCc2ccc(Cl)cc2)c2c1nnn2Cc1ccc(F)cc1` was tested. Which inhibition did it give?
Answer: -1.58%

Question: With `Cc1ccc2nc(-c3ccc(Cl)c(NC(=O)c4ccc5c(c4)OCCO5)c3)oc2c1` as the compound, how does the inhibition read?
Answer: 6.08%

Question: With `CC1CCc2nc3ncn(Cc4ccc(Cl)cc4)c(=O)c3cc2C1` (configuration not stated) as the compound, how does the inhibition read?
Answer: 9.05%

Question: How did the inhibition turn out when `COC(=O)c1ccccc1NC(=O)c1cc(-c2ccc(Cl)cc2)on1` was run?
Answer: 13.8%

Question: How did the inhibition turn out when `O=C(Cn1nc(-c2ccccc2)c2cnc3ccccc3c21)Nc1ccccc1` was run?
Answer: -0.398%

Question: `Cc1ccc(C)c(NC(=O)CN2C(=O)C3(SCC(=O)N3c3ccc(C)c(C)c3)c3ccccc32)c1` (configuration not stated) was tested. Which inhibition did it give?
Answer: 9.14%

Question: Which inhibition does the source give for `CCC(=O)N1CCc2cc(CNS(=O)(=O)c3c(C)cc(C)cc3C)ccc21` here?
Answer: 10.8%

Question: With `Cc1ccc(Cn2nnc3sc4c(c3c2=O)CCC(C)C4)cc1` (configuration not stated) as the compound, how does the inhibition read?
Answer: 8.37%

Question: For `Cc1ccc(Cl)cc1N(C)C(=O)c1noc2c1CCCCC2`, which inhibition is on record?
Answer: 4.02%

Question: For `COc1ccccc1NC(=O)C1=C(C)Nc2nc(SCC(=O)c3ccc(C)cc3)nn2C1c1ccccc1C` (configuration not stated), which inhibition is on record?
Answer: 28%

Question: How did the inhibition turn out when `O=C(c1ccco1)N1CCC(N2CCN(c3ccccc3)CC2)CC1` was run?
Answer: active: 60.8%

Question: For `COc1ccc(-n2cc(C(=O)N(C)c3cc(C)ccc3OC)c3ccccc3c2=O)cc1`, which inhibition is on record?
Answer: 10.8%

Question: With `CSCCC(NS(=O)(=O)c1ccc2c(c1)oc(=O)n2C)C(=O)NCc1ccc(F)cc1` (configuration not stated) as the compound, how does the inhibition read?
Answer: 11.9%

Question: `Cc1nn(Cc2noc(C(=O)NCc3cccc(F)c3)n2)c(C)c1Br` was tested. Which inhibition did it give?
Answer: 9.05%

Question: With `COc1ccc(NC(=O)c2sc3nc(C)c(C(=O)Nc4ccc(C)cc4C)c(-c4ccccc4Cl)c3c2N)cc1` as the compound, how does the inhibition read?
Answer: -9.43%

Question: How did the inhibition turn out when `O=C(CN1C(=O)NC(Cc2ccccc2)C1=O)Nc1ccc(F)c(Cl)c1` (configuration not stated) was run?
Answer: active: 32.7%

Question: With `CCOc1ccc(NS(=O)(=O)c2ccc3[nH]cc(C(=O)NCCOC)c(=O)c3c2)cc1` as the compound, how does the inhibition read?
Answer: -12%

Question: Which inhibition does the source give for `CN(C)CCN(Cc1ccccc1)S(=O)(=O)c1ccc(-c2cc(C(F)(F)F)on2)s1` here?
Answer: -2.72%

Question: For `CN(C)CCNC(=O)CCCn1c(=O)c2cccn2c2ccccc21`, which inhibition is on record?
Answer: -16.2%

Question: `Cc1ccc(Nc2ncnc3c2cnn3-c2ccc(C)cc2)cc1` was tested. Which inhibition did it give?
Answer: -6.21%

Question: `COc1cc(OC)c(NC(=O)c2cc(C(C)=O)n3ccccc23)cc1Cl` was tested. Which inhibition did it give?
Answer: 0.324%

Question: How did the inhibition turn out when `CC(=O)Nc1ccc(NS(=O)(=O)c2cc(Br)cc3c2N(C(=O)C2CC2)CC3)cc1` was run?
Answer: 9.7%

Question: How did the inhibition turn out when `CCOc1ccccc1NC(=O)CSc1ccc2nnc(CCNS(=O)(=O)c3ccccc3)n2n1` was run?
Answer: 23.7%

Question: How did the inhibition turn out when `COc1ccc(C)cc1NS(=O)(=O)c1c(C)nc2sc(C)cn2c1=O` was run?
Answer: -9.08%

Question: For `Brc1ccc(-c2noc(-c3ccccc3)n2)o1`, which inhibition is on record?
Answer: -1.61%

Question: With `COCCNC(=O)CCCn1c(=O)[nH]c2ccsc2c1=O` as the compound, how does the inhibition read?
Answer: -12.7%

Question: With `COc1ccc(NC(=O)Cn2c(=O)oc3cc(S(=O)(=O)N4CCCCC4C)ccc32)cc1` (configuration not stated) as the compound, how does the inhibition read?
Answer: 5.63%

Question: How did the inhibition turn out when `O=C(c1ccccc1F)N1CCC(c2nc3c(nnn3Cc3cccc(F)c3)c(=O)[nH]2)CC1` was run?
Answer: -3.79%

Question: Which inhibition does the source give for `Cc1ccc(NC(=S)N(CCCN2CCC(C)CC2)Cc2ccco2)cc1` here?
Answer: active: 34.7%

Question: For `Cc1oc(-c2ccc(C(=O)NC(C)c3ccccc3)cc2)nc1CS(=O)(=O)c1ccccc1` (configuration not stated), which inhibition is on record?
Answer: -12.8%

Question: How did the inhibition turn out when `COC(=O)c1ccccc1NC(=O)CCCN1C(=O)C(c2ccccc2)Oc2cccnc21` (configuration not stated) was run?
Answer: -10.4%

Question: For `COc1ccc(CCn2c(=O)[nH]c3cc(C(=O)N4CCN(c5ccccc5)CC4)ccc3c2=O)cc1OC`, which inhibition is on record?
Answer: 11.8%

Question: Which inhibition does the source give for `COCCNC(=O)CCCN1C(=O)CCn2nc(-c3cccn3C)cc21` here?
Answer: -5.89%

Question: With `Cc1ccc(CCNC(=O)c2ccc(CS(=O)(=O)c3ccc(Cl)cc3)o2)cc1` as the compound, how does the inhibition read?
Answer: -10.7%

Question: How did the inhibition turn out when `CCN1C(=O)C2(c3ccccc31)c1c(oc3ccc(C)cc3c1=O)C(=O)N2CCCOC(C)C` (configuration not stated) was run?
Answer: -8.11%

Question: Which inhibition does the source give for `Cc1cc2ccccc2n1CCNC(=O)c1ccc(F)cc1` here?
Answer: 3.51%

Question: `CC1=C(c2ccc(C)cc2)S(=O)(=O)N(Cc2ccc(C(=O)Nc3ccccc3C)cc2)C1=O` was tested. Which inhibition did it give?
Answer: 11.8%

Question: How did the inhibition turn out when `COc1ccccc1N1CCN(C(=O)CCc2c[nH]c3ccccc23)CC1` was run?
Answer: active: 44.5%

Question: With `COc1cc(OC)c(OC)cc1CCC(C)NCCC(c1ccccc1)c1ccccc1` (configuration not stated) as the compound, how does the inhibition read?
Answer: active: 49.2%
